This is an account of results in patent US10017542B2, “Antimicrobial peptides and methods of use thereof” (priority 2015, dated 2018).

Where a SMILES comes first, the peptide text is derived from it. Where no end group is shown, it is not given here. [ ]: non-standard residue; d: D form. Orn = NCCC[C@H](N)C(=O)O

The test relates to eight challenge organisms: Enterococcus faecium ATCC 700221; Enterobacter aerogens ATCC 13048; Staphylococcus aureus MRSA ATCC 33591; Streptococcus pneumoniae …. As to conditions: MBC = concentration for 99.9% lethality; average across all eight bacteria tested. The protocol: Sample dilutions ranged from initial sample to 1:2048. Eleven (11) concentrations were tested in duplicate on a 96 well plate by MQA Laboratories. Results are shown in Table 4 as Minimum bactericidal concentration (MBC), which is the concentration of each peptide necessary to yield 99.9% lethality for each of the eight challenge organisms. (The concentrations in Table 4 are averages of the MBC across all bacteria tested in μM).

FAFAFAFKKAFKKFKKAFKKAF [RP442]: the “Average MBC” value amounted to 15.2 µM.

For “MGFKLRAKIKVRLRAKIKL [RP435, MGFKLRAKIKVRLRAKIKL]”, the “Average MBC” value turned out to be 19.6 µM.

Consider KKKPKPPYLPKPKPPPFFPPKLPPKI [RP440], for which the “Average MBC” value is 18 µM.

Regarding `C[C@H](NC(=O)[C@H](Cc1ccccc1)NC(=O)[C@H](C)NC(=O)[C@@H](N)Cc1ccccc1)C(=O)N[C@@H](Cc1ccccc1)C(=O)N[C@@H](CCCN)C(=O)N[C@@H](C)C(=O)N[C@@H](Cc1ccccc1)C(=O)N[C@@H](CCCN)C(=O)N[C@@H](CCCN)C(=O)N[C@@H](C)C(=O)N[C@@H](Cc1ccccc1)C(=O)N[C@@H](CCCN)C(=O)N[C@@H](CCCN)C(=O)N[C@@H](Cc1ccccc1)C(=O)N[C@@H](CCCN)C(=O)N[C@@H](CCCN)C(=O)N[C@@H](C)C(=O)N[C@@H](Cc1ccccc1)C(=O)N[C@@H](CCCN)C(=O)N[C@@H](CCCN)C(=O)N[C@@H](C)C(=O)N[C@@H](Cc1ccccc1)C(=O)O` [RP443, FAFAFOAFOOAFOOFOOAFOOAF] (H-FAFAF[Orn]AF[Orn][Orn]AF[Orn][Orn]F[Orn][Orn]AF[Orn][Orn]AF-OH; N-terminus and C-terminus assumed), the “Average MBC” value worked out at 11.3 µM.

Regarding CPGFAKKFAKKFKKFAKKFAKFAFAF [RP438], the “Average MBC” value came out at 5.3 µM.

`C[C@H](NC(=O)[C@H](Cc1ccccc1)NC(=O)[C@H](C)NC(=O)[C@H](Cc1ccccc1)NC(=O)[C@H](CCCN)NC(=O)[C@H](C)NC(=O)[C@H](Cc1ccccc1)NC(=O)[C@H](CCCN)NC(=O)[C@H](CCCN)NC(=O)[C@H](C)NC(=O)[C@H](Cc1ccccc1)NC(=O)[C@H](CCCN)NC(=O)[C@H](CCCN)NC(=O)[C@H](Cc1ccccc1)NC(=O)[C@H](CCCN)NC(=O)[C@H](CCCN)NC(=O)[C@H](C)NC(=O)[C@H](Cc1ccccc1)NC(=O)[C@H](CCCN)NC(=O)[C@H](CCCN)NC(=O)[C@H](C)NC(=O)[C@@H](N)Cc1ccccc1)C(=O)N[C@@H](Cc1ccccc1)C(=O)O` [RP444, FAOOFAOOFOOFAOOFAOFAFAF] (H-FA[Orn][Orn]FA[Orn][Orn]F[Orn][Orn]FA[Orn][Orn]FA[Orn]FAFAF-OH; N-terminus and C-terminus assumed): the “Average MBC” value turned out to be 7.5 µM.

Take FAKKFAKKFKKFAKKFAFAFAF [RP445]: the “Average MBC” value amounted to 10.4 µM.

Turning to FAFAFKAFKKAFKKFKKAFKKAFGPC [RP441], the “Average MBC” value came to 8.8 µM.
